The list shows a part of the results.
B1: PhoQ; a variant is named by its letters at X, in order, P23837 (parent)
chain: MKKLLRLFFPLSLRVRFLLATAAVVLVLSLAYGMVALIGYSVSFDKTTFRLLRGESNLFYTLAKWENNKLHVELPENIDKQSPTMTLIYDENGQLLWAQRDVPWLMKMIQPDWLKSNGFHEIEADVNDTSLLLSGDHSIQQQLQEVREDDDDAEMTHSVAVNVYPATSRMPKLTIVVVDTIPVELKSSYMVWSWFIYVLSANLLLVIPLLWVAAWWSLRPIEALAKEVRELEEHNRELLNPATTRELTSLVRNLNRLLKSERERYDKYRTTLTDLTHSLKTPLXXLQXXLRSLRSEKMSVSDAEPVMLEQISRISQQIGYYLHRASMRGGTLLSRELHPVAPLLDNLTSALNKVYQRKGVNISLDISPEISFVGEQNDFVEVMGNVLDNACKYCLEFVEISARQTDEHLYIVVEDDGPGIPLSKREVIFDRGQRVDTLRPGQGVGLAVAREITEQYEGKIVAGESMLGGARMEVIFGRQHSAPKDE

Variants of: B1
Assay: enrichment ratio after two sorts for PhoP signalling (ratio (wild type AVST 3.29)); higher = more functional
Conditions: with PhoP (E. coli)

FCTC and WVLG cannot be ordered by enrichment ratio: no more than 0.25 for the first, no more than 0.25 for the second.

FAGV and IHDF cannot be ordered by enrichment ratio: no more than 0.25 for the first, no more than 0.25 for the second.

IMQW and AHYY cannot be ordered by enrichment ratio: no more than 0.25 for the first, no more than 0.25 for the second.

FHEF and QEQQ cannot be ordered by enrichment ratio: no more than 0.25 for the first, no more than 0.25 for the second.

HQMM and QQHR cannot be ordered by enrichment ratio: no more than 0.25 for the first, no more than 0.25 for the second.

QRPD and VGLW cannot be ordered by enrichment ratio: no more than 0.25 for the first, no more than 0.25 for the second.

VVRT and MTNG cannot be ordered by enrichment ratio: no more than 0.25 for the first, no more than 0.25 for the second.

First: TMDE
Second: STLV
The enrichment ratio of the first is lower: no more than 0.25 for the first, 15.4 for the second.

EILG and HHKY cannot be ordered by enrichment ratio: no more than 0.25 for the first, no more than 0.25 for the second.

MYCN and RMVD cannot be ordered by enrichment ratio: no more than 0.25 for the first, no more than 0.25 for the second.

VLCY and VDQG cannot be ordered by enrichment ratio: no more than 0.25 for the first, no more than 0.25 for the second.

QYIN and TKHH cannot be ordered by enrichment ratio: no more than 0.25 for the first, no more than 0.25 for the second.

WVCW and DCFW cannot be ordered by enrichment ratio: no more than 0.25 for the first, no more than 0.25 for the second.

WHKT and VMSM cannot be ordered by enrichment ratio: no more than 0.25 for the first, no more than 0.25 for the second.

EKIH and PSGM cannot be ordered by enrichment ratio: no more than 0.25 for the first, no more than 0.25 for the second.

QPDR and DQYV cannot be ordered by enrichment ratio: no more than 0.25 for the first, no more than 0.25 for the second.

KQPI and HFLI cannot be ordered by enrichment ratio: no more than 0.25 for the first, no more than 0.25 for the second.

ECKL and DFLD cannot be ordered by enrichment ratio: no more than 0.25 for the first, no more than 0.25 for the second.

MKCQ and GGAR cannot be ordered by enrichment ratio: no more than 0.25 for the first, no more than 0.25 for the second.

FSDP and MERT cannot be ordered by enrichment ratio: no more than 0.25 for the first, no more than 0.25 for the second.

VWRM and FLSS cannot be ordered by enrichment ratio: no more than 0.25 for the first, no more than 0.25 for the second.

First: SKLA
Second: DVDA
The enrichment ratio of the first is higher: 8.7 for the first, no more than 0.25 for the second.

PNGN and MDDW cannot be ordered by enrichment ratio: no more than 0.25 for the first, no more than 0.25 for the second.

MHFG and WIIL cannot be ordered by enrichment ratio: no more than 0.25 for the first, no more than 0.25 for the second.

SLPP and EEGG cannot be ordered by enrichment ratio: no more than 0.25 for the first, no more than 0.25 for the second.

WKLA and GNRD cannot be ordered by enrichment ratio: no more than 0.25 for the first, no more than 0.25 for the second.

CFVN and YVVV cannot be ordered by enrichment ratio: no more than 0.25 for the first, no more than 0.25 for the second.

KNMW and VQIA cannot be ordered by enrichment ratio: no more than 0.25 for the first, no more than 0.25 for the second.

QLKD and VWPQ cannot be ordered by enrichment ratio: no more than 0.25 for the first, no more than 0.25 for the second.

FLSM and HREN cannot be ordered by enrichment ratio: no more than 0.25 for the first, no more than 0.25 for the second.

NYWE and MWVR cannot be ordered by enrichment ratio: no more than 0.25 for the first, no more than 0.25 for the second.

KGTA and LCFS cannot be ordered by enrichment ratio: no more than 0.25 for the first, no more than 0.25 for the second.

RVPT and IGRA cannot be ordered by enrichment ratio: no more than 0.25 for the first, no more than 0.25 for the second.

QIFF and QIVA cannot be ordered by enrichment ratio: no more than 0.25 for the first, no more than 0.25 for the second.

FPSR and ENVL cannot be ordered by enrichment ratio: no more than 0.25 for the first, no more than 0.25 for the second.

VRIG and RLMF cannot be ordered by enrichment ratio: no more than 0.25 for the first, no more than 0.25 for the second.

ECIR and EKLL cannot be ordered by enrichment ratio: no more than 0.25 for the first, no more than 0.25 for the second.

QMYA and NFEH cannot be ordered by enrichment ratio: no more than 0.25 for the first, no more than 0.25 for the second.

Compared with ITLI, QMLC is lower in enrichment ratio: 8.76 for the first, no more than 0.25 for the second.

Going from SDIP to IMGF, the enrichment ratio falls from 0.899 to no more than 0.25.

SDKN and EKDS cannot be ordered by enrichment ratio: no more than 0.25 for the first, no more than 0.25 for the second.

Compared with ASSA, RYDD is lower in enrichment ratio: 8.93 for the first, no more than 0.25 for the second.

Going from GSIQ to TAMP, the enrichment ratio falls from 5.89 to no more than 0.25.

QRYM and GVKD cannot be ordered by enrichment ratio: no more than 0.25 for the first, no more than 0.25 for the second.

YVHP and ERCW cannot be ordered by enrichment ratio: no more than 0.25 for the first, no more than 0.25 for the second.

HNTD and IASK cannot be ordered by enrichment ratio: no more than 0.25 for the first, no more than 0.25 for the second.

PIEL and MGPE cannot be ordered by enrichment ratio: no more than 0.25 for the first, no more than 0.25 for the second.

QIQR and NELR cannot be ordered by enrichment ratio: no more than 0.25 for the first, no more than 0.25 for the second.

Going from TVAL to HGMK, the enrichment ratio falls from 6.12 to no more than 0.25.

KGAL and KVLS cannot be ordered by enrichment ratio: no more than 0.25 for the first, no more than 0.25 for the second.

ACQF and HPGR cannot be ordered by enrichment ratio: no more than 0.25 for the first, no more than 0.25 for the second.

Going from MSWI to IGDA, the enrichment ratio falls from 14.1 to no more than 0.25.

YMQP and EPFD cannot be ordered by enrichment ratio: no more than 0.25 for the first, no more than 0.25 for the second.

QNQN and PWWR cannot be ordered by enrichment ratio: no more than 0.25 for the first, no more than 0.25 for the second.

SVEN and SQQD cannot be ordered by enrichment ratio: no more than 0.25 for the first, no more than 0.25 for the second.

Going from GTLS to MYRP, the enrichment ratio falls from 9.81 to no more than 0.25.

PNMA and MYIN cannot be ordered by enrichment ratio: no more than 0.25 for the first, no more than 0.25 for the second.

LWAH and ERAV cannot be ordered by enrichment ratio: no more than 0.25 for the first, no more than 0.25 for the second.

LIWG and QQIP cannot be ordered by enrichment ratio: no more than 0.25 for the first, no more than 0.25 for the second.

IYSA and ITCG cannot be ordered by enrichment ratio: no more than 0.25 for the first, no more than 0.25 for the second.

INLP and PVLC cannot be ordered by enrichment ratio: no more than 0.25 for the first, no more than 0.25 for the second.

RLNL and DKEI cannot be ordered by enrichment ratio: no more than 0.25 for the first, no more than 0.25 for the second.

TLRR and VFYD cannot be ordered by enrichment ratio: no more than 0.25 for the first, no more than 0.25 for the second.

HKNV and RKNT cannot be ordered by enrichment ratio: no more than 0.25 for the first, no more than 0.25 for the second.

NYYK and WFNI cannot be ordered by enrichment ratio: no more than 0.25 for the first, no more than 0.25 for the second.

VHLF and FIWR cannot be ordered by enrichment ratio: no more than 0.25 for the first, no more than 0.25 for the second.

NHFF and QHAS cannot be ordered by enrichment ratio: no more than 0.25 for the first, no more than 0.25 for the second.

IMLF and TVVR cannot be ordered by enrichment ratio: no more than 0.25 for the first, no more than 0.25 for the second.

DYMN and FFWN cannot be ordered by enrichment ratio: no more than 0.25 for the first, no more than 0.25 for the second.

YKFD and QKAS cannot be ordered by enrichment ratio: no more than 0.25 for the first, no more than 0.25 for the second.

AIHL and FDDI cannot be ordered by enrichment ratio: no more than 0.25 for the first, no more than 0.25 for the second.

WSEY and INCT cannot be ordered by enrichment ratio: no more than 0.25 for the first, no more than 0.25 for the second.

RGVN and LLEI cannot be ordered by enrichment ratio: no more than 0.25 for the first, no more than 0.25 for the second.

RFDL and PISG cannot be ordered by enrichment ratio: no more than 0.25 for the first, no more than 0.25 for the second.

CTPS and EDHL cannot be ordered by enrichment ratio: no more than 0.25 for the first, no more than 0.25 for the second.

WSAP and DCAQ cannot be ordered by enrichment ratio: no more than 0.25 for the first, no more than 0.25 for the second.

DKVF and YIHG cannot be ordered by enrichment ratio: no more than 0.25 for the first, no more than 0.25 for the second.

GFAP and QLQH cannot be ordered by enrichment ratio: no more than 0.25 for the first, no more than 0.25 for the second.

QSPK and PMTI cannot be ordered by enrichment ratio: no more than 0.25 for the first, no more than 0.25 for the second.

PNYR and VMGR cannot be ordered by enrichment ratio: no more than 0.25 for the first, no more than 0.25 for the second.

SVFW and DMFY cannot be ordered by enrichment ratio: no more than 0.25 for the first, no more than 0.25 for the second.

First: TMLS
Second: AVPW
The enrichment ratio of the first is higher: 4.79 for the first, no more than 0.25 for the second.

HAFN and HTIW cannot be ordered by enrichment ratio: no more than 0.25 for the first, no more than 0.25 for the second.

MHMC and FLSA cannot be ordered by enrichment ratio: no more than 0.25 for the first, no more than 0.25 for the second.

ITQH and FFCH cannot be ordered by enrichment ratio: no more than 0.25 for the first, no more than 0.25 for the second.

FVQD and ASQE cannot be ordered by enrichment ratio: no more than 0.25 for the first, no more than 0.25 for the second.

FMGS and VIHL cannot be ordered by enrichment ratio: no more than 0.25 for the first, no more than 0.25 for the second.

WGKG and VKYK cannot be ordered by enrichment ratio: no more than 0.25 for the first, no more than 0.25 for the second.

PYVL and QWSP cannot be ordered by enrichment ratio: no more than 0.25 for the first, no more than 0.25 for the second.

RPGD and PYGG cannot be ordered by enrichment ratio: no more than 0.25 for the first, no more than 0.25 for the second.

VFTM and YPGH cannot be ordered by enrichment ratio: no more than 0.25 for the first, no more than 0.25 for the second.

First: FYFM
Second: MLSN
The enrichment ratio of the first is higher: 0.584 for the first, no more than 0.25 for the second.

YMGL and AYET cannot be ordered by enrichment ratio: no more than 0.25 for the first, no more than 0.25 for the second.

KVYV and KTEK cannot be ordered by enrichment ratio: no more than 0.25 for the first, no more than 0.25 for the second.

Compared with SDSQ, HGTM is higher in enrichment ratio: no more than 0.25 for the first, 0.737 for the second.

MVVT and QTMM cannot be ordered by enrichment ratio: no more than 0.25 for the first, no more than 0.25 for the second.

HHWL and QRKR cannot be ordered by enrichment ratio: no more than 0.25 for the first, no more than 0.25 for the second.

IRYN showed an enrichment ratio of no more than 0.25.
